Out of some 94,000 compounds screened, about 6,200 (6.6%) were called active. The shares of active, inactive and inconclusive entries below differ from those in the screen. Calls come from the whole dose curve; as a rule, active = well fitted inhibition curve with a large enough effect; inconclusive = small, poorly fitted or top-dose-only effect; inactive = flat fitted curve, though single readings scatter. Potencies of inconclusive entries are doubtful fits and often do not repeat.
Experiment: Cytotoxic Profiling in HEK 293 Cell Line of Diverse Libraries Using Quantitative High-Throughput Screening; note: nearly all actives have a fitted effect of over 60% in size
Details: HEK 293 viability, ATP luminescence (CellTiter-Glo), 48-72 h; series mostly up to 115 µM
In short: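 HEK 293 cells at 250 cells/well were exposed to compounds by pintool transfer for 48 or 72 hr at 37 degree Celsius, 5% CO2. Viability was read as ATP-coupled luminescence with CellTiter-Glo after 10 min at room temperature.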
Potency is the fitted concentration of half-maximal effect; tags give direction and shape of the fitted curve.

Compound	Potency
COc1ccc(-c2noc([C@@H]3CCCN3C(=O)c3ccc(F)cc3Cl)n2)cc1OC	inconclusive: 89.1 µM [inhibitor, single point]
Cc1nc(-c2cnccn2)n(CC(=O)Nc2cccc(F)c2)c(=O)c1C	inconclusive: 89.1 µM [inhibitor, single point]
CN1[C@@H](CCC(=O)NCc2cccs2)CNC(=O)[C@@H]2[C@H]1CCN2Cc1ncc[nH]1	inactive
COc1cccc(CN2CCC(Cn3c(C)cnc3-c3ccccc3)CC2)c1OC	inconclusive: 89.1 µM [inhibitor, single point]
O=C(c1cc2ccccc2[nH]1)N1CCCC(n2cc(-c3nc(-c4ccccc4)no3)nn2)C1 (stereo not drawn)	inactive
COc1cc(OC)cc(OCC2CN(Cc3cccc(C(F)(F)F)c3)C(=O)c3c(ccnc3-c3ccc(OCC(=O)O)cc3)O2)c1 (stereo not drawn)	inactive
Cc1ccc(-c2cn3c(n2)CO[C@@H](CNC(=O)c2ccccc2)C3)cc1	inconclusive: 79.4 µM [inhibitor, partial curve, poor fit]
c1ccc(-c2ccc3ncc(Nc4ccccn4)n3n2)cc1	inconclusive: 126 µM [inhibitor, partial curve, poor fit]
Cc1cc(CNC(=O)[C@@H]2CCC[C@@H](NC(=O)NC3(c4ccccc4)CCOCC3)CN(C)C(=O)C2)no1	inactive
CCOC(=O)c1ccc(NC(=O)Cn2c(N3CCC(C)CC3)nc(C)cc2=O)cc1	inconclusive: 15.8 µM [inhibitor, full curve, poor fit]
CC(C)C[C@@H]1N[C@H](C(=O)N2CCN(C)CC2)Cc2cn(Cc3ccccn3)c3cccc1c23	inconclusive: 89.1 µM [inhibitor, single point]
COC(=O)c1cccc(NC(=S)N[C@H]2CO[C@H]3[C@@H]2OC[C@H]3OC(=O)Nc2cccc3ccccc23)c1	inconclusive: 50.1 µM [inhibitor, partial curve, poor fit]
CCOc1ccc(NC(=O)N2CCc3cc(OC)c(OC)cc3C2CNC(=O)C2CC2)cc1 (stereo not drawn)	inactive
O=c1n(-c2ccc(C(F)(F)F)cc2)nc2n1CCN(CC1CCCCC1)C2	inconclusive: 79.4 µM [inhibitor, partial curve, poor fit]
Cc1cn2nc(C(=O)N3CCC(NC(=O)c4ccc[nH]4)CC3)cc2c(=O)[nH]1	inactive
COc1ccc(CN2CCC3(C2)C(=O)N(C)c2ccccc23)cc1 (stereo not drawn)	inconclusive: 56.2 µM [inhibitor, partial curve, poor fit]
CCCCN(C)C(=O)c1c(C)sc2ccn(CCC)c(=O)c12	inactive
CC(C)n1nc(OC(C)(C)C(=O)Nc2ccccc2)c2cc(CN3CCOCC3)ccc21	inconclusive: 100 µM [inhibitor, partial curve]
CC(C)(C)c1ccc(-c2cc(C[C@H]3CNCC[C@H]3CC(=O)O)no2)cc1	inconclusive: 50.1 µM [inhibitor, partial curve, poor fit]
O=C(CCc1ccccc1)N1CCCN(c2cc(-c3ccccc3)[nH]n2)CC1	inconclusive: 56.2 µM [inhibitor, partial curve, poor fit]
Cn1cc(CN2CCc3ccccc32)ccc1=O	inconclusive: 79.4 µM [inhibitor, partial curve, poor fit]

Compound	Potency
COCCC1(NS(C)(=O)=O)CCN(C(=O)NCC(C)C)CC1	inactive
C[C@]1(CO)[C@H]2Cc3sc(NC(=O)c4ccc(F)cc4)nc3[C@@H](CC(=O)N3CCCCC3)[C@]2(C)CC[C@H]1O	inconclusive: 56.2 µM [inhibitor, partial curve, poor fit]
COc1ccccc1Nc1ncc2c(n1)CN(C(=O)c1ccnn1C)CCN2	inconclusive: 112 µM [inhibitor, single point]
Clc1cccc(Nc2cc3c(cn2)CN(Cc2cccnc2)CCN3)c1	active: 31.6 µM
O=C(C1CCCO1)N1CCC2(CC1)NCCc1c2[nH]c2ccccc12 (stereo not drawn)	inactive
COc1cccc(C(=O)NC2CCN(c3cc(-c4ccc(Cl)cc4)[nH]n3)CC2)c1OC	inconclusive: 56.2 µM [inhibitor, partial curve, poor fit]
CC(=O)NC1CCN(c2nccc(Nc3ccc(C)cc3)n2)CC1	inconclusive: 79.4 µM [inhibitor, partial curve, poor fit]
O=C(Nc1cccc(Cl)c1)N1CCC2(CC1)SCC(=O)N2Cc1ccco1	inconclusive: 89.1 µM [inhibitor, single point]
O=C([C@H]1CCCN1C(=O)c1ccc(F)cc1)N1CCC(N2CCOC2=O)CC1	inactive
O=C1Nc2ccccc2CC12CCCN2CC1CCCCC1 (stereo not drawn)	inconclusive: 56.2 µM [inhibitor, partial curve, poor fit]
O=C(c1cccc(Cl)c1)N1CCN(C(=O)c2cccc(-c3ccccn3)c2)CC1	inconclusive: 50.1 µM [inhibitor, partial curve, poor fit]
Cc1ccc([S+](=O)([O-])N2CCCN(c3nc4ncccc4o3)CC2)cc1	inconclusive: 79.4 µM [inhibitor, partial curve, poor fit]
COc1cccc(N2CCN(C(=O)CCn3ccn4nc5c(c4c3=O)CCCC5)CC2)c1	inactive
Cc1ccc(-n2c(C3CCN(C(=O)c4c(F)cccc4Cl)CC3)n[nH]c2=O)cc1	inactive
C#CCN(C)Cc1nc(C2(O)CCN(C(=O)COC)CC2)cs1	inactive
CCN1CCN(C(=O)c2cc(-c3ccc(C(F)(F)F)cc3)nc3c2cnn3C)CC1	inconclusive: 44.7 µM [inhibitor, partial curve, poor fit]
COCCNC(=O)c1nc(-c2cccnc2)c2cnccn12	inconclusive: 126 µM [inhibitor, single point]
COc1cccc(S(=O)(=O)N2CCC3(CC2)C(OC)C(=O)N3c2cccc(F)c2)c1 (stereo not drawn)	inconclusive: 12.6 µM [inhibitor, partial curve, poor fit]
O=C(Nc1cccc(C(F)(F)F)c1)c1nc2c(o1)CCN(Cc1cnc[nH]1)CC2	inconclusive: 112 µM [inhibitor, partial curve, poor fit]
CCC(O)C(=O)N1CCc2onc(-c3ccc(-c4ccccc4)cc3)c2C1 (stereo not drawn)	inconclusive: 39.8 µM [inhibitor, full curve, poor fit]
O=C(CCl)N1CCC2(CC1)CC(c1cccc(C(F)(F)F)c1)=NO2	active: 79.4 µM

Compound	Potency
CC(C)Nc1cc(N2CCN(Cc3ccccc3F)C(CCO)C2)ncn1 (stereo not drawn)	inconclusive: 79.4 µM [inhibitor, single point]
COCCNC(=O)[C@@H]1CCCN1c1nccc(Nc2ccccc2Cl)n1	inactive
CC1(COc2cccnc2)COc2ccc(C(=O)Nc3ccc4[nH]ccc4c3)cc2N1 (stereo not drawn)	inconclusive: 63.1 µM [inhibitor, partial curve, poor fit]
CN(C(=O)c1ccc(C(F)(F)F)cc1)C1CCOc2ccccc21 (stereo not drawn)	inconclusive: 100 µM [inhibitor, partial curve, poor fit]
Cc1ccccc1CC(=O)N1CCC2(CC1)CC(O)CCO2 (stereo not drawn)	inactive
Cc1noc(C)c1CCC(=O)N(C)C1CCc2nn(CC3CC3)c(=O)n2CC1 (stereo not drawn)	inactive
CN1CCCC1c1nc(C2CN(C(=O)CCc3nc4ccccc4s3)C2)no1 (stereo not drawn)	inconclusive: 50.1 µM [inhibitor, partial curve, poor fit]
CN(Cc1cccnc1)C(=O)c1ccc2c(c1)C(O)CCCCCN2C (stereo not drawn)	inconclusive: 56.2 µM [inhibitor, partial curve, poor fit]
COC(=O)c1ccc(COCC2=CC(C)(C)COc3ccc(OC)cc32)cc1	inconclusive: 79.4 µM [inhibitor, partial curve]
CC(C)CC(=O)N1CCc2ccc(S(=O)(=O)N(C)Cc3nccs3)cc2C1	inconclusive: 56.2 µM [inhibitor, partial curve, poor fit]
O=C(Cc1c[nH]c2ncc(-c3ccc(F)cc3)cc12)NCc1cccnc1	inconclusive: 100 µM [inhibitor, partial curve, poor fit]
O=C(c1ccccc1Cl)N1CCC2(CC1)NC(=O)N(c1cccc(Cl)c1)N2	inconclusive: 44.7 µM [inhibitor, partial curve, poor fit]
CCOc1ccccc1C1NC(=O)N(CC(=O)Nc2ccc(C)c(C)c2)C2=C1C(=O)OC2 (stereo not drawn)	inconclusive: 89.1 µM [inhibitor, single point]
O=C(NCCCc1ccccc1)C1CCCN(Cc2cccc(-c3ccsc3)c2)C1 (stereo not drawn)	active: 39.8 µM
COc1cc(NC(=O)Cn2c(-c3ccc(Cl)cc3)nc(C)cc2=O)cc(OC)c1OC	inconclusive: 39.8 µM [inhibitor, partial curve, poor fit]
COCCN1C(=O)CCC2(C(=O)NCc3ccc(Cl)cc3)CCCC=C12 (stereo not drawn)	inactive
CCCc1ccc(S(=O)(=O)N(CCC)CC2CCOC2)cc1 (stereo not drawn)	inconclusive: 39.8 µM [inhibitor, partial curve]
COCC1CN(S(=O)(=O)c2ccc(C)c(F)c2)CC12CCNCC2 (stereo not drawn)	inactive
COc1cccc(OC)c1CN1CC(O)CN([S+](=O)([O-])c2ccc(F)cc2)CC1=O (stereo not drawn)	inconclusive: 89.1 µM [inhibitor, single point]
O=C(c1ccco1)N1CCC(N2CC3(CCCC3)C2c2ccccc2)CC1 (stereo not drawn)	inconclusive: 31.6 µM [inhibitor, partial curve, poor fit]
O=C(c1cccc(F)c1)N1CCC(Cc2nc(C3CCOCC3)no2)CC1	inconclusive: 28.2 µM [inhibitor, full curve]

Reference: PubChem BioAssay AID1345083 (National Center for Advancing Translational Sciences (NCATS), 2018)
